The values below come from a collection of fitness landscapes (doi:10.1016/j.celrep.2020.107928).

The full ranking holds about 81,000 sequences; the median of “one-hybrid fitness for binding NBS DNA” is about -0.1, and the highest 2% start at about 0.36. Some of the results follow.

B1: Caulobacter ParB omega fusion; a variant is named by its letters at X, in order, B8GW30 (parent)
chain: MESVVVGEPGMSEGRRGLGRGLSALLGEVDAAPAQAPGEQLGGSREAPIEILQRNPDQPRRTFREEDLEDLSNSIREKGVLQPILVRPSPDTAGEYQIVAGERAWRAAQRAGLKTVPIMVRELDDLAVLEIGIIENVQRADLNVLEEALSYKVLMEKFERTQENIAQTIGKSXSHVANXMRLLXLPDEVQSYLVSGELTAXHARAIAAAADPVALAKQIIEGGLSVRETEALARKAPNLSAGKSKGGRPPRVKDTDTQALESDLSSVLGLDVSIDHRGSTGTLTITYATLEQLDDLCNRLTRGI

This assay covers variants of B1. Put plainly: one-hybrid fitness for binding NBS DNA (the Noc-binding site; scaled: cognate 1, non-cognate 0); higher = stronger binding. To be noted: with NBS DNA site. Summed up:
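On M9-minus-histidine containing 0.1 mM IPTG and 5 mM 3-AT, E. coli USO cells with a HIS3 reporter, site 19 bp from the promoter, grew 48 hours at 37°C to select Caulobacter ParB libraries randomised at four specificity codons. Plasmids from before and after were Illumina-sequenced, with three replicate libraries pooled and variants under 10 reads left out. Fitness is the log change in variant-to-wild-type read ratio, rescaled against cognate and non-cognate.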
Regarding MDRH, the “one-hybrid fitness for binding NBS DNA” value is at most 0.2.
The result for KRKF reads at most 0.2.
Turning to PCKL, the “one-hybrid fitness for binding NBS DNA” value was at most 0.2.
In the case of QASY, the “one-hybrid fitness for binding NBS DNA” value is at most 0.2.
As for QHAR, the “one-hybrid fitness for binding NBS DNA” value turned out to be 0.523.
As for DHAG, the “one-hybrid fitness for binding NBS DNA” value is at most 0.2.
As for MNAT, the “one-hybrid fitness for binding NBS DNA” value was at most 0.2.
Regarding HPRL, the “one-hybrid fitness for binding NBS DNA” value is at most 0.2.
For the variant RNKQ, the “one-hybrid fitness for binding NBS DNA” value was at most 0.2.
The value for GMQR was at most 0.2; that for TLYN was at most 0.2; that for EAAA was at most 0.2.
The result for EAGL reads at most 0.2; that for IDSF, at most 0.2.
Consider LMSD, for which the “one-hybrid fitness for binding NBS DNA” value is at most 0.2.
For the variant DLPF, the “one-hybrid fitness for binding NBS DNA” value was at most 0.2.
As for KLYV, the “one-hybrid fitness for binding NBS DNA” value is at most 0.2.
RWWY: the “one-hybrid fitness for binding NBS DNA” value is at most 0.2.
Take ARQM: the “one-hybrid fitness for binding NBS DNA” value is at most 0.2.
Consider PVMS, for which the “one-hybrid fitness for binding NBS DNA” value was at most 0.2.
Consider ACGC, for which the “one-hybrid fitness for binding NBS DNA” value is at most 0.2.
Regarding MACS, the “one-hybrid fitness for binding NBS DNA” value is at most 0.2.
For IKGG, the “one-hybrid fitness for binding NBS DNA” value was at most 0.2.
The value for QDQK was at most 0.2; that for KYLY was at most 0.2.
As for EDAL, the “one-hybrid fitness for binding NBS DNA” value was at most 0.2.
Take SNKV: the “one-hybrid fitness for binding NBS DNA” value was at most 0.2.
In the case of RQDN, the “one-hybrid fitness for binding NBS DNA” value is at most 0.2.
For MCSR, the “one-hybrid fitness for binding NBS DNA” value is at most 0.2.
Take RHVQ: the “one-hybrid fitness for binding NBS DNA” value amounted to 0.222.
Consider SAFI, for which the “one-hybrid fitness for binding NBS DNA” value is at most 0.2.
On to AVHV, for which the “one-hybrid fitness for binding NBS DNA” value was at most 0.2.
For the variant TAYG, the “one-hybrid fitness for binding NBS DNA” value is at most 0.2.
The value for WSSS was at most 0.2; that for WLPR was at most 0.2.
On to FKGS, for which the “one-hybrid fitness for binding NBS DNA” value is at most 0.2.
For IYTG, the “one-hybrid fitness for binding NBS DNA” value was at most 0.2.
For HKNQ, the “one-hybrid fitness for binding NBS DNA” value was at most 0.2.
INEG: the “one-hybrid fitness for binding NBS DNA” value was at most 0.2.
The result for RMKG reads at most 0.2.
QSNW: the “one-hybrid fitness for binding NBS DNA” value is at most 0.2.
Consider HRYR, for which the “one-hybrid fitness for binding NBS DNA” value was at most 0.2.
LTHQ: the “one-hybrid fitness for binding NBS DNA” value was at most 0.2.
The value for EPSV was at most 0.2; that for QRDK was at most 0.2; that for ATSR was at most 0.2.
Consider TEIV, for which the “one-hybrid fitness for binding NBS DNA” value was at most 0.2.
Take YLYS: the “one-hybrid fitness for binding NBS DNA” value is at most 0.2.
Regarding SNAF, the “one-hybrid fitness for binding NBS DNA” value was at most 0.2.
The value for QPEV was at most 0.2; that for GNMS was at most 0.2.
Turning to LKIF, the “one-hybrid fitness for binding NBS DNA” value was at most 0.2.
For the variant YANS, the “one-hybrid fitness for binding NBS DNA” value was at most 0.2.
As for KEIG, the “one-hybrid fitness for binding NBS DNA” value is at most 0.2.
For the variant TEPC, the “one-hybrid fitness for binding NBS DNA” value was at most 0.2.
On to DLNE, for which the “one-hybrid fitness for binding NBS DNA” value is at most 0.2.
As to DQGG, the “one-hybrid fitness for binding NBS DNA” value is at most 0.2.
Consider QRCM, for which the “one-hybrid fitness for binding NBS DNA” value is 0.397.
As for ARLM, the “one-hybrid fitness for binding NBS DNA” value is at most 0.2.
SEKA: the “one-hybrid fitness for binding NBS DNA” value is at most 0.2.
For the variant YFDL, the “one-hybrid fitness for binding NBS DNA” value is at most 0.2.
For the variant DRSE, the “one-hybrid fitness for binding NBS DNA” value is at most 0.2.
Turning to DWTD, the “one-hybrid fitness for binding NBS DNA” value was at most 0.2.
The value for QNYK was at most 0.2; that for AGVI was at most 0.2.
The value for EIAG was at most 0.2; that for HVAE was at most 0.2; that for DIMI was at most 0.2.
The result for CGPT reads at most 0.2.
As to DCAG, the “one-hybrid fitness for binding NBS DNA” value was at most 0.2.
For the variant PSRW, the “one-hybrid fitness for binding NBS DNA” value was at most 0.2.
As to LGPT, the “one-hybrid fitness for binding NBS DNA” value is at most 0.2.
REHF: the “one-hybrid fitness for binding NBS DNA” value is at most 0.2.
The result for QHKI reads 0.333; that for RVPA, at most 0.2.
Turning to NMDG, the “one-hybrid fitness for binding NBS DNA” value is at most 0.2.
The value for HVRY was at most 0.2; that for SIDA was at most 0.2; that for SHHQ was at most 0.2.
Consider PENG, for which the “one-hybrid fitness for binding NBS DNA” value was at most 0.2.
Regarding WTFT, the “one-hybrid fitness for binding NBS DNA” value was at most 0.2.
With PNRY, the “one-hybrid fitness for binding NBS DNA” value was at most 0.2.
The result for IWVG reads at most 0.2; that for NHHE, at most 0.2; that for TLMR, at most 0.2.
Regarding ALAQ, the “one-hybrid fitness for binding NBS DNA” value was at most 0.2.
The result for YHRI reads at most 0.2; that for MCER, at most 0.2; that for PSHT, at most 0.2.
Regarding TAFR, the “one-hybrid fitness for binding NBS DNA” value was at most 0.2.
On to QNIY, for which the “one-hybrid fitness for binding NBS DNA” value is at most 0.2.
NKHA: the “one-hybrid fitness for binding NBS DNA” value was at most 0.2.
The value for KLVG was at most 0.2; that for QEWR was at most 0.2; that for WNFG was at most 0.2.
The result for ENYA reads at most 0.2; that for SFTV, at most 0.2; that for RFSN, at most 0.2.
Consider AHRL, for which the “one-hybrid fitness for binding NBS DNA” value is at most 0.2.
Consider LAHG, for which the “one-hybrid fitness for binding NBS DNA” value is at most 0.2.
As for TTCA, the “one-hybrid fitness for binding NBS DNA” value was at most 0.2.
For VVLY, the “one-hybrid fitness for binding NBS DNA” value is at most 0.2.
For YIMG, the “one-hybrid fitness for binding NBS DNA” value is at most 0.2.
With IETL, the “one-hybrid fitness for binding NBS DNA” value is at most 0.2.
As for RSCL, the “one-hybrid fitness for binding NBS DNA” value was at most 0.2.
With RGHN, the “one-hybrid fitness for binding NBS DNA” value is at most 0.2.
In the case of HKMT, the “one-hybrid fitness for binding NBS DNA” value was at most 0.2.
Take FLWR: the “one-hybrid fitness for binding NBS DNA” value was at most 0.2.
The result for YGTP reads at most 0.2; that for TTDL, at most 0.2.
The value for HIKY was at most 0.2.
For the variant FVQR, the “one-hybrid fitness for binding NBS DNA” value was at most 0.2.
The result for RPEA reads at most 0.2; that for QPVI, at most 0.2; that for RGHF, at most 0.2.
Consider LNMW, for which the “one-hybrid fitness for binding NBS DNA” value was at most 0.2.
Regarding GTDG, the “one-hybrid fitness for binding NBS DNA” value is at most 0.2.
NTYG: the “one-hybrid fitness for binding NBS DNA” value is at most 0.2.
Consider CWTG, for which the “one-hybrid fitness for binding NBS DNA” value was at most 0.2.
Consider FWTS, for which the “one-hybrid fitness for binding NBS DNA” value is at most 0.2.
In the case of TTAC, the “one-hybrid fitness for binding NBS DNA” value is at most 0.2.
The value for PHQC was at most 0.2.
TIGS: the “one-hybrid fitness for binding NBS DNA” value is at most 0.2.
As for ADFS, the “one-hybrid fitness for binding NBS DNA” value is at most 0.2.
RQEY: the “one-hybrid fitness for binding NBS DNA” value is at most 0.2.
For AFPW, the “one-hybrid fitness for binding NBS DNA” value was at most 0.2.
The result for QMCS reads 0.38; that for NAQP, at most 0.2.
The value for TGDE was at most 0.2; that for QWWR was at most 0.2; that for LRAN was at most 0.2.
Regarding TPVN, the “one-hybrid fitness for binding NBS DNA” value is at most 0.2.
Regarding WPSC, the “one-hybrid fitness for binding NBS DNA” value was at most 0.2.
As to RRTF, the “one-hybrid fitness for binding NBS DNA” value was at most 0.2.
Turning to ADCY, the “one-hybrid fitness for binding NBS DNA” value is at most 0.2.
As to RGNL, the “one-hybrid fitness for binding NBS DNA” value is at most 0.2.
As to KTAI, the “one-hybrid fitness for binding NBS DNA” value was at most 0.2.
On to QRWY, for which the “one-hybrid fitness for binding NBS DNA” value is 0.289.
On to LVHL, for which the “one-hybrid fitness for binding NBS DNA” value is at most 0.2.
Turning to YIHG, the “one-hybrid fitness for binding NBS DNA” value was at most 0.2.
As for NRSW, the “one-hybrid fitness for binding NBS DNA” value is at most 0.2.
Turning to SWSF, the “one-hybrid fitness for binding NBS DNA” value was at most 0.2.
As to ERDS, the “one-hybrid fitness for binding NBS DNA” value was at most 0.2.
As for SSMC, the “one-hybrid fitness for binding NBS DNA” value is at most 0.2.
With MNPR, the “one-hybrid fitness for binding NBS DNA” value is at most 0.2.
The value for GPQT was at most 0.2; that for GFTL was at most 0.2.
In the case of TIYN, the “one-hybrid fitness for binding NBS DNA” value is at most 0.2.
On to RYQA, for which the “one-hybrid fitness for binding NBS DNA” value was at most 0.2.
The value for WQKF was at most 0.2; that for SHIL was at most 0.2; that for SNHG was at most 0.2.
Turning to RSKM, the “one-hybrid fitness for binding NBS DNA” value was at most 0.2.
